Experimental data reported in the supplement of paper PMC11876631.
Residue numbers refer to the chain shown, from its start. Names may count otherwise. ± gives the standard deviation of the averaged measurements. Laboratory Escherichia coli strains with one amino-acid change in an essential protein, pooled on minimal glucose agar with carbenicillin or gentamicin at twice the control MIC (plus kanamycin and chloramphenicol for the plasmids), 48 h. Fold change of barcode share against drug-free plates; higher = less susceptible. Active = above 20 in both replicates (the paper's putatively resistant). '<' = one read or none on drug, '>' = one read or none on a drug-free plate. Shares are relative, so most strains fall below 1 when a few take over. Listed are strains with at least 15 reads on both drug-free plates, and hits; most hits rest on fewer reference reads. Replicate rank correlation about 0.5. Edits are read from barcodes.

B1: hemB F121P (protein)
chain: MTDLIQRPRRLRKSPALRAMFEETTLSLNDLVLPIFVEEEIDDYKAVEAMPGVMRIPEKHLAREIERIANAGIRSVMTFGISHHTDETGSDAWREDGLVARMSRICKQTVPEMIVMSDTCPCEYTSHGHCGVLCEHGVDNDATLENLGKQAVVAAAAGADFIAPSAAMDGQVQAIRQALDAAGFKDTAIMSYSTKFASSFYGPFREAAGSALKGDRKSYQMNPMNRREAIRESLLDEAQGADCLMVKPAGAYLDIVRELRERTELPIGAYQVSGEYAMIKFAALAGAIDEEKVVLESLGSIKRAGADLIFSYFALDLAEKKILR
B2: hemB M116A (protein)
chain: B1 chain with M116A, P121F
B3: hemB M116W (protein)
chain: B1 chain with M116W, P121F
B4: hemB M116Q (protein)
chain: B1 chain with M116Q, P121F
B5: hemB M116P (protein)
chain: B1 chain with M116P, P121F
B6: hemB V115A (protein)
chain: B1 chain with V115A, P121F
B7: hemB V115W (protein)
chain: B1 chain with V115W, P121F
B8: hemB V115Q (protein)
chain: B1 chain with V115Q, P121F
B9: hemB M77A (protein)
chain: B1 chain with M77A, P121F
B10: hemB M77Q (protein)
chain: B1 chain with M77Q, P121F
B11: hemB M77D (protein)
chain: B1 chain with M77D, P121F
B12: hemB L244W (protein)
chain: B1 chain with P121F, L244W
B13: hemC L66P (protein)
chain: MLDNVLRIATRQSPLALWQAHYVKDKLMASHPGLVVELVPMVTRGDVILDTPLAKVGGKGLFVKEPEVALLENRADIAVHSMKDVPVEFPQGLGLVTICEREDPRDAFVSNNYDSLDALPAGSIVGTSSLRRQCQLAERRPDLIIRSLRGNVGTRLSKLDNGEYDAIILAVAGLKRLGLESRIRAALPPEISLPAVGQGAVGIECRLDDSRTRELLAALNHHETALRVTAERAMNTRLEGGCQVPIGSYAELIDGEIWLRALVGAPDGSQIIRGERRGAPQDAEQMGISLAEELLNNGAREILAEVYNGDAPA
B14: hemC I168A (protein)
chain: B13 chain with P66L, I168A

Each protein was assayed against Escherichia coli (laboratory strain) (assay: barcode share on antibiotic plates over drug-free plates; higher = less susceptible). Conditions: antibiotic: carbenicillin; 2× MIC (3.1 µg/mL).
Procedure: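 A pool of E. coli strains, each edited to carry one amino-acid change in an essential protein, was grown for 48 h on minimal glucose agar with or without antibiotic; strain barcodes were sequenced; mean of two replicates.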
With B1 the “fold change of barcode share” value was 0.264 ± 0.044. With B2 the “fold change of barcode share” value was 0.227 ± 0.016. For B3, the “fold change of barcode share” value was 0.313 ± 0.14. For B4, the “fold change of barcode share” value was 0.194 ± 0.015. In the case of B5, the “fold change of barcode share” value is reported as 0.273 ± 0.12. For B6, the “fold change of barcode share” value was 0.318 ± 0.073. In the case of B7, the “fold change of barcode share” value is reported as 0.188 ± 0.11. B8 was tested, and the “fold change of barcode share” value was 0.418 ± 0.2. With B9 the “fold change of barcode share” value was 0.294 ± 0.15. B10 was tested, and the “fold change of barcode share” value was 0.313 ± 0.093. For B11, the “fold change of barcode share” value was 0.735 ± 0.51. With B12 the “fold change of barcode share” value was 0.411 ± 0.053. For B13, the “fold change of barcode share” value was 0.475 ± 0.22. B14 was tested, and the “fold change of barcode share” value was 0.317 ± 0.044.

Same assay, conditions: antibiotic: gentamicin; 2× MIC (MIC 0.45 µg/mL)
With B1 the “fold change of barcode share” value was 0.482 ± 0.066. B2 was tested, and the “fold change of barcode share” value was 0.0262 ± 0.029. For B3, the “fold change of barcode share” value was under 0.0095. With B4 the “fold change of barcode share” value was under 0.0106. With B6 the “fold change of barcode share” value was 0.052 ± 0.05. With B7 the “fold change of barcode share” value was 0.0292 ± 0.013. For B8, the “fold change of barcode share” value was under 0.00467. For B9, the “fold change of barcode share” value was 0.0133 ± 0.0018. With B10 the “fold change of barcode share” value was under 0.00414. In the case of B11, the “fold change of barcode share” value is reported as 0.0971 ± 0.092. With B12 the “fold change of barcode share” value was 11 ± 10. In the case of B13, the “fold change of barcode share” value is reported as 0.768 ± 1.1. For B14, the “fold change of barcode share” value was 0.0168 ± 0.018.
